Experimental data as given in the supplement of paper PMC11417369.
± gives the standard deviation of the averaged measurements. This is one part of the list.

What follows are sequences tested on PfAP2-LT AP2 domain (GST-tagged) (assay: gcPBM binding intensity (ln(normalized median fluorescence intensity)); higher = stronger DNA binding).
How it was run: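 Binding intensity values are the highest Masliner-normalised natural-log median intensity among replicate spots of either probe orientation. The binding step lasted 1 h in 1× PBS with 1% milk, 0.2 mg/ml BSA, 0.5% salmon testes DNA and 0.03% Triton X-100, using GST-tagged P. falciparum DNA-binding domains expressed in E. coli on an Agilent 4 × 180k array of primer-extended double-stranded 36-bp intergenic genomic probes plus negative controls. Alexa488 anti-GST antibody and a 488 nm scan detected bound protein.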

Row | Sequence | gcPBM binding intensity (ln)
1 | AGAAAAAAAATGTATACACACAAATATAAAGAAGGA [CACACA_site3806] | 9.09 ± 0.4
2 | ATCCCAGTAATATATAGTACATAACTATAAGAGAAT [XGTACX_site6909] | 9.05 ± 0.45
3 | AAAGCACGCAAGAATACACACAAATATTATAAAAAA [CACACA_site6206] | 9.22 ± 0.53
4 | TAAAAAATTATAAAATGTACATAAAAAAAAAAAAAA [XGTACX_site3376] | 8.55 ± 0.47
5 | AGGAAAACAAAAGATGCATGCTAATTTTCCTCGCGT [TGCATGCA_site627] | 8.89 ± 0.38
6 | CTGAAGAAACTACAACGTACAAAATATGTATATATT [XGTACX_site3779] | 8.96 ± 0.35
7 | TAGCCCACATTTAATGGTACAGTGAGTATATATATG [XGTACX_site8044] | 8.8 ± 0.33
8 | ATGGAAATAAAAAAAAAAAAAAAAAAAAATATATAT [GTGCAC_negctrl_site67] | 8.53 ± 0.54
9 | TACATAAAATACCATGCATGCTAGTAAAAAAAAAAA [TGCATGCA_site650] | 8.85 ± 0.54
10 | TAATATATTTATAGAGCATGCAACGTAATATTATTA [TGCATGCA_site863] | 8.96 ± 0.3
11 | CAAATAGCTAGCTGTGCACACAAACATATTTTCCAA [CACACA_site879] | 9.2 ± 0.38
12 | CACAAACAAAGACACACACACACACGCACAAAAATG [CACACA_site7193] | 10.3 ± 0.21
13 | AAAATGCATTTGATGTGTACGCATTATAAAGAACAA [XGTACX_site4203] | 9.07 ± 0.42
14 | GTATTCATTCCTTGAGTGCAATTGCAATAAATAAAA | 8.88 ± 0.45
15 | CATATTAAGATGTGTACACATTTTTATTTTTTTTTT [CACACA_site4425] | 8.74 ± 0.5
16 | TAAAATAAAAAGTTTACACACATATATAACTTTAAT [CACACA_site6456] | 8.73 ± 0.37
17 | CCCCTATAAATAGGGTGTACTAATAAATATTTTTAA [XGTACX_site1244] | 8.955 ± 0.05
18 | ACGGGCGACACATAAGTGCGCAAAAAAAAAAAAATA [GTGCAC_site9688] | 9.05 ± 0.65
19 | GAAAAGTATAAAAAACGTACAAGTTTTATTTTCACA [XGTACX_site4604] | 8.61 ± 0.48
20 | TTTTATAAAACATGTAGTACATGAAAAAAAAAATTT [XGTACX_site1626] | 8.52 ± 0.35
21 | AAAATACAGAAACACACACACACACCCATATATATA [CACACA_site3559] | 10.31 ± 0.014
22 | ATGTTTCTATAGATTTGTACATATTTCATATGAATA [XGTACX_site1053] | 8.89 ± 0.38
23 | TTATTTTTTGTATGAACACACAACTTAATTATGATG [CACACA_site2448] | 8.89 ± 0.56

Row | Sequence | gcPBM binding intensity (ln)
24 | TCTTTTCTTTTGTGTGTGCACATATAAGCATGAAAC [GTGCAC_site9910] | 9.38 ± 0.42
25 | TTTTTTAATTAATTACCTTTGAATGTGTATTAGGAC [GTGCAC_negctrl_site651] | 8.56 ± 0.48
26 | TTTTACAAATATTTCTGTACACATTCTCATATAATT [XGTACX_site1974] | 8.87 ± 0.47
27 | TAAAACAAAATGGTAACACACACATATATATATATA [CACACA_site8590] | 9.87 ± 0.15
28 | ATAGCATTTCACAAATGTACATAAAAAAATAAAAAT [XGTACX_site402] | 8.93 ± 0.5
29 | AAATGACGAAATAAAATCATAAATTAAAATAAATAA [CACACA_negctrl_site655] | 8.68 ± 0.59
30 | AATATATAAATATATATAAATAAATATATATATAAA [CACACA_negctrl_site49] | 8.59 ± 0.5
31 | TCCTATCATTTATATTTTACTACATAATATTGATAA [GTGCAC_negctrl_site286] | 8.59 ± 0.4
32 | AAATGGAAATTAATATGTACATATTTATAAGTATGA [XGTACX_site1774] | 8.73 ± 0.45
33 | ACATCCTATAAATAGAGTACGTAAATTATAATACAC [XGTACX_site5338] | 8.97 ± 0.32
34 | TATATATATATATATTGTACAAAGATTAATATATAA [XGTACX_site8433] | 8.74 ± 0.29
35 | ACTTAATTTTTTTATTGTACATGTAAATGAGGGAAA [XGTACX_site6305] | 8.51 ± 0.39
36 | TATTTTAATAAGAATAAATGAAATGAAATGAAATAT [CACACA_negctrl_site823] | 8.5 ± 0.44
37 | ATCAAAGATAAATTTACACACATATAAATATAAATA [CACACA_site7409] | 9.07 ± 0.49
38 | GTTTTTATCATATCATGTACGTATTTTATTTTTTTT [XGTACX_site8643] | 9.13 ± 0.45
39 | CTTCTGGACAGGAATGCACACATTTTTTTTTCTTTT [CACACA_site1807] | 8.9 ± 0.47
40 | ATGAATTTTTCTCTACAAAAGGATATAATAAAAATA [XGTACX_negctrl_site461] | 8.21 ± 0.35
41 | TAGTGTGCCAAATTAGCACACACATATATACATGAA [CACACA_site8910] | 9.6 ± 0.36
42 | TTTTCTAATTAATATTGTACATAAATGTATATATAT [XGTACX_site4749] | 8.56 ± 0.44
43 | AAAAAAAAAAAAAATACACACACACCGATATATATA [CACACA_site8142] | 9.775 ± 0.092
44 | ATACATATAATAATATGTACATATAATTATATATAT [XGTACX_site913] | 8.86 ± 0.35
45 | TATAACACACAATGATGTACATTACATTATTTTTTA [XGTACX_site2076] | 8.79 ± 0.45
46 | AATATAATATACATATGTACATATATATATATATAT [XGTACX_site8218] | 9.48 ± 0.028

Row | Sequence | gcPBM binding intensity (ln)
47 | TAATATAAATGAAAGGTGCTTTTGCTTTCTTTTTTT | 8.35 ± 0.54
48 | ATATATATATATATGTGTACATATTTTTTTGAAGTG [XGTACX_site248] | 9.565 ± 0.078
49 | TTTTCTATATAACAACGTACATTTATTATATTATAA [XGTACX_site6148] | 8.49 ± 0.45
50 | TAATATATTTTTAACATGCACTGTATTTTAATATAT | 8.76 ± 0.4
51 | TATACAAATATATATGCACACACATATATGTATATG [CACACA_site9007] | 9.3 ± 0.3
52 | TAATTAAAGTTATCTACACACCTTTATAGATATATA [CACACA_site7778] | 8.71 ± 0.39
53 | TATAAAACAAATATATGTACATATCATAGTATAATA [XGTACX_site2965] | 8.85 ± 0.45
54 | ACAAGTATTCCTTTTGCACACCTTTCTGCACCTTAT [CACACA_site3873] | 9.54 ± 0.4
55 | ATTATGAATTTAAGACGTACAAAAAATTTTTATTCA [XGTACX_site5682] | 8.44 ± 0.38
56 | ATTAAAATAATACGTACACACATGTATAATACATAT [CACACA_site1005] | 9.22 ± 0.32
57 | AAATACTTATTCGTGGTGCAACAATTTTAAAAATTA | 8.62 ± 0.4
58 | AATAATATATTATATGCATGTGTATAATTTGATATA [TGCATGCA_site1058] | 8.79 ± 0.35
59 | TTTGGTTATTTGACCTGTACACATTTAATTATTTTT [XGTACX_site5170] | 8.85 ± 0.4
60 | CAAAGGAAATGGTGTACACAATTTTTCCTTTTTCGT [CACACA_site4800] | 8.83 ± 0.35
61 | AGCAAGACGGGGTGCACACAAACTAATATGCCGAAT [CACACA_site159] | 9.53 ± 0.52
62 | TATTACATAATATATGTACACACGCAAATACTTATA [CACACA_site7994] | 8.98 ± 0.27
63 | TAACAACGATACAATTGTACAAATTATATATATATA [XGTACX_site4687] | 9.39 ± 0.2
64 | CAAAAAAAGTTATACACACACACACGGATATAAATA [CACACA_site6619] | 9.91 ± 0.085
65 | TTTTTTTTTTTTTTTTGTACATAATTCCATATTTTT [XGTACX_site1789] | 8.62 ± 0.5
66 | TGATCTTTACACATATTATATATATATAAAAAAAAA [XGTACX_negctrl_site360] | 8.38 ± 0.49
67 | AAAAAAAAAAGAAACACACACATATAGATTTATAAC [CACACA_site6927] | 9.27 ± 0.36
68 | AATCTAGGTATTTATACACACTAAAATAATATACGA [CACACA_site4515] | 8.88 ± 0.38
69 | AAAAAATTAACCGTAACACACACACCGATATATATA [CACACA_site9312] | 9.73 ± 0.2

Row | Sequence | gcPBM binding intensity (ln)
70 | ATTTAAATAATATTCACACACAAAATTAAATTTTAA [CACACA_site6246] | 8.82 ± 0.45
71 | GCTCTAATTAATATTTGTACACACATATTTAACCTA [XGTACX_site6808] | 9.2 ± 0.48
72 | CCCTCAACGAATTTGAGTACACATTTTAAATGATAT [XGTACX_site7763] | 8.57 ± 0.4
73 | ATCGCAAGATTAATATAAGGAGAAACGTTTATATAT [GTGCAC_negctrl_site267] | 8.82 ± 0.52
74 | TTATAACATATAAACATGTTTCATCTTACGTATTTT [GTGCAC_negctrl_site694] | 8.98 ± 0.45
75 | ATATTTAATTTGTATGGTACAGTACGATCTTTCTTT [XGTACX_site5533] | 8.97 ± 0.52
76 | ATAAGAATATATAGAGTGCGTTGAAGAATTATAATA | 8.89 ± 0.49
77 | AAAAAACATTTGATCTGTACGCATAGACAATTATAT [XGTACX_site960] | 8.7 ± 0.36
78 | TAAAAGAAAGCACATACACACACAAAAAAAAAAAAG [CACACA_site8159] | 9.77 ± 0.45
79 | AATAATATGTTATCTCTTACACATATAAAAAATAAA [XGTACX_negctrl_site370] | 8.48 ± 0.43
80 | AATTAAATGATTTATACATGCATATAAATATAAATA [TGCATGCA_site579] | 8.71 ± 0.43
81 | TCTGTAAATATGTATACACACATATATGATCAATAT [CACACA_site3234] | 9.04 ± 0.4
82 | AGTAGAAAAGGAACATGTACGAATTAAAAAAATAAT [XGTACX_site2347] | 9.03 ± 0.57
83 | ACATATATATATATATATATATATATATTTATTTAT [CACACA_negctrl_site734] | 9.3 ± 0.14
84 | TACACCATGATACATACACACAGACATATACACATT [CACACA_site6601] | 9.43 ± 0.28
85 | CAATATATTTGATTTACACACTTACAATGTATTTAA [CACACA_site5632] | 8.79 ± 0.38
86 | CGAAAAAATAAAAAAAAAATAAAATAAAATAAATAA [TGCATGCA_negctrl_site278] | 8.56 ± 0.59
87 | ATAATCCTTAGACACACACACACACGAATAAATAAA [CACACA_site6364] | 9.93 ± 0.27
88 | TTATACTGTACAAAAAGAATAGCAGTATAACAAAAA [CACACA_negctrl_site755] | 8.85 ± 0.44
89 | ACAGGATTGGTTCAAACACACATATTATAGGACTAT [CACACA_site6455] | 9.02 ± 0.45
